# From the RNAGym collection of RNA variant scans (doi:10.1093/nar/gkz1192)
# Read counts are not given, so values of variants with three or more changes are uncertain.
# B1: CPEB3 Ribozyme (parent)
# chain: UAACAGGGGGCCACAGCAGAAGCGUUCACGUCGCAGCCCCUGUCAGAUUCUGGUGAAUCUGCGAAUUCUGCUGUAUAUCUC
# Variants of: B1
# Assay: self-cleavage, relative activity (ratio to wild type); higher = more cleavage; in vitro, sequencing
# Outline: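 Barcoded CPEB3 ribozyme mutants, produced by rounds of error-prone PCR, self-cleaved while being transcribed with T7 RNA polymerase for 5 hours at 37°C and during a subsequent 15 min DNase I step before EDTA was added. Sequencing of template-switched cDNA on Illumina gave cleaved and total reads, and DNA sequencing assigned barcodes to variants. Each variant's relative activity is its cleaved/total read fraction divided by the unmutated ribozyme's fraction, averaged across three batches. A variant needed a minimum of 5 reads.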
row,Variant,self-cleavage
1,UAACAGAGGGCCACAGCAGAAGCGUUCACGUCGCAGCCCCUGUCAGGUUCUGGUGAACCUGCGAUUUCUGCUGUAUAUCUC,0.08
2,UAACAGAGGGCCACAGUAGAAGCGUUCACGUCGCAGCCCCUGUCAGAUUAUGGUGAAUCUGCGUAUUCUGCUGUAUAUCUC,0.05
3,UAACAGAGGGUCACAGCAGAAGCGUUCACGUCGCAGCCCCUGACAGAUUCCGGUGAAUCUGCGAAUUCUGCUGUAUAUCUC,0.3
4,UAACAGAGAGCCACAGCAGAAGCGUUCACGUCGCAGCCCCUGUCUGAUUCUGGUGGAUCUGCGGAUUCUGCUGUGUAUCUC,0.19
5,UAACAGAGGACCACAGCAGAAGCGUUCACGCCGCAGCCCCUGUCAGAUUCUGGUGAAUCUGCGAAUUCUGCUGUAUAUCUC,0.16
6,UAACAGAAGGCCACAUCAGAAGCGCUCACGUCGCAGCCCCUGUCAGAUUCUGGUGAAUCUGCGAAUUCUGCUGUAUAUCUC,0.4
7,UAACAGAGGGCCACAGCAGAAGCGUUCACGUCGCAGCCCCUGUCUGAUUCUGGUGAAUCUGCGAAUUCUGCUGUAUAGCUC,0.23
8,UAACAGAGGGCCACAGCAGAAGCGUUCACGUCGCAGCCCCUGUCGGAUUCUGGUGAAUCUGCGAAUUCUGCAGUAUAUCUC,0.14
9,UAACAGAGGGUCACAGCAGAAGCGUUCACGUCGCAACCCCUGUCAGAUUCCGGUGAAUCUGCGGAUCCUGCUGUAUAUCUC,0.03
10,UAACAGAGGGCCACAGCAGAAGCGUUCUCGUCGCAGCUCCUGUCAGGUUCUGGUGAAUCUGCGAAUUCUGCUGUAUAUCUC,0.07
11,UAACAGAGGGCCACAGCAGAAGCGUUCACGUCGCGGCCCCUGUCAGAUCCUGGUGAAUCUGCGAAUUCUGCUGCUUUUCUC,0.08
12,UAACAGAGAGCCUCAGCGGAAGCGUUCACGUCGCAGCCCCUGUCAGAUUCUGGUGAAUCUGCGAAUUCUGCUGUAUAUUUC,0.06
13,UAACAGAGGGCCACAGCAGAAGUGUACACGUCGUAGCCCCUGUCAGAUUCCGGUGAAUCUGCGAAUUCUGCUGAAAAUCUC,0.05
14,UAACAGAGGGCCACAGCAGAAGCGUUCACGUCGCAGCACCUGUCAGAUUCUGGUUAAUCCGCGAAUUCUGCUGUAUAUCUC,0.23
15,UAACAGAGGGCCACAGCAGAAGCGUUCACGUCGCAGCCCCUGUCAGGCUCUGGUGAAUCUGCGAAUUCUGCUGUAUAUCUC,0.05
16,UAACAGAGGGCCACAGCAGAAGCGUUCACGUCGCAGCCCCUGUCAGUUUCUGGUGGAUCUGCGAAUUCUGCUGUAUAUCUC,0.18
17,UAACAGAGAGCCACAGCAGAAGCGUUCACGUCGCAGCCCCUGUCAGAUUCUGGUGAAUCAGCGAAUGCUGCUGUAUAUCUC,0.06
18,UAACAGAGGGCCACAGCAGAAGCGUUCACGUCGCGGCCCCUGUCAGAUUCUGGUGAAUCAGCGAAUACUGCUGUAUACCUC,0.11
19,UAACAGAAGGCCACAGCAGUAGCGUACACGUCGCAGCCCCUGUCAGAUUCUGGUGAAUCUGCGAAUUCUGCUGUAUAUCUC,0.35
20,UAACAGAGGGCCAGAGCAGAAGCGUCCACGUCGCAGCCCCUGUCAGGUUCUGGCGAAUCUGCGUAUUCUGCUGUAUACCUC,0.06
21,UAACAGAGGGGCACAGCAGAAGCGUUCACGUCGCAGCCCCUGUCAGAUUCUAGCGAAUCUACGAAUUCUGCCGUAUAUCUC,0.1
22,UAACAGAGGGCCACAGCAGAAGCGUUCACGUCGCAGUCCCUGUCAGAUUCUGGUGAAUCUGCGAUUUCUGCUGUAUAUCUC,0.09
23,UAACAGAGGGCCACAGCAGAAGCGUUCGCGUCGCAGCCCCUGUCAGAUUCUGGUGAAUCUGCGAAUCCUGCUGUAUAUCUC,0.07

row,Variant,self-cleavage
1,UAACAGAGGGCCACAGCAGAAGCGUUCACGUCGCGGCCCCUGUCAGAUUCUGGUGAAUCUGCGAAUUCUGCUGCAUAUCUC,0.42
2,UAACAGAGGGCCACAGCAGAAGCGUUCGCGGCGCAGCCCCUGUCAGAUCCUAGUGAAUCUGCGAAUUCUGCUGUAUAUCUC,0.12
3,UAACAGAGGGCCACAGCAGAAGCGUUCACGUCGCAGCCCCUGUCAGAUUUUGGUGAAACCACGAAUUCUGCUGUAAAUCUC,0.06
4,UAACAGAGGACCACAGCAGAAGCGUUCACGUCGCAGCCCCUGGCAGAUCCUGGUGAAUCUGCGAAUCCUGCUGUAUGUCUC,0.03
5,UAACAGAGGGCCACAGCAGAAGCGUUCACGUCGCAGCCCCUGUCGGAUUCUGGUGAAUCCGCGAAUUCUGCUGUUUAUCUC,0.13
6,UAACAGAGGGCCACAGUAGAAGCGUUCACGUCGCAGCCCCUGUCAGAUUCUGGUGAAUCUGCGAAUUCUGCUGUAUAUCCC,0.4
7,UAACAGAGGGCCACAGCAGAAGCGUUGACGUCGCAGCCCCUGUCAGAUACUGGCGAAUCAGCGAAUUCUGCUGUAUAUCUC,0.09
8,UAACAGAGGGCCACAGCAGAAGCGUUCACGUCGCAGCCCCUGUCAGCCUCUGGUGUAUCUGCGAAUUCUGCCGUAUAUCAC,0.05
9,UAACAGAGGGCCACAGCAGAAGCGUUCUCGUCGCGGCCCCUGUCAGACUCUGGUGAGUCUGCGAAUUCUGCUGUAUAUCUC,0.09
10,UAACAGAGAGCCACGGCAGAAGCGUGCACGUCGCAGCCCCUGACAGAUUCUGGCGAAUCUGCGAAUUCUGCUGUAAAUCUC,0.04
11,UAACAGAGGGCCACAGCAGAAGCGUUCACGUCGCAGCCCCUGUCAGAUUCUGGUGAAUCUGCGAAUUCUGCUGUAUGUCGC,0.04
12,UAACAGAGGGUCACACCAGAACCGUUCUCGUCGCAGCCCCAGUCAGAUUCUGGAGAAUCUGCGAAUUCUGCUGUAUAUCUC,0.06
13,UAACAGAGAGCCACAGCGGAAGCGUUCACGUCGCAGCCCCUGUCAGAUUCUGGCGAGCCUGCGAAUUCUGCUGUAUAUCUC,0.09
14,UAACAGAGGGCUACAGCGGAAACGUUCACGUCGCAGCCCCUGACAGAUUCUGGUGAAUCUGCGAAAUCUGCUGUAUAUCUC,0.03
15,UAACAGAGGGCCACAGCAGAAGCGUUCACGUCGCAGCCCCUGUCAGAUUCUGGUGAGCCUGCGAAUUCUGCCGUAUAUCUC,0.4
16,UAACAGAGGGCCACAGCAGAAGCGUUCACGUCGCAGCCCCUGUCGGAUUCUGGUGAAUCCGCGAAUUCAGCUGUAUAUCUC,0.05
17,UAACAGAGGGCCACAGCAGAAGCGUUCGCGUCGCAGCCCCUGUCAGAUACCGGUGAAUCUGCGAAUUCUGCUGUAUAUCCC,0.06
18,UAACAGAGGGCUACAGCAUAAGUGUUCACGUCGCAGCCCCUGUCAGGUUCUGGCGAAUCUGCGAAUUCUGCUGUAUAUCUC,0.04
19,UAACAGAGGGCCACAGCAGAAGCGUUCACGUCGCAGCCCCUGUCGGAAUCUGGUGAAUCUGCGAAUUCUGCUGUAUACCUC,0.03
20,UAACAGAAGGCCUCAGCAGAAGCGUACACGUCGCAGCCCCUGUCAGAUUCUGGUGAAUCUGCGAACUCGGCUGUAUAUCAC,0.07
21,UAACAGAGGGCCACAGCAGAAGCGUUCACGUUGCAGCCCCUGUCAGAUUCUGGCGAAUCUGCGAAUUCUGCUGUAUAUCUC,0.17
22,UAACAGAGGGCCAUAGCAGAAGCGUUCACGUCGCAGCCCCUGUCAGAUCCUGGUGAAUCUGCGAAUUCUGCUGUAUAUAUC,0.3
23,UAACAGAGGGCCACAGCAGAAGCGUUCGCGUCGCAGCCCCUGUCAGAUACUGGUGAAUCUGCGAAUUCUGCUGUAUAUCCC,0.15

row,Variant,self-cleavage
1,UAACAGAGGGCCACAGCAGAAGCGUUCACGUCGCAGCCCGUGUCAGAUUCGGGUGAGUCUGCGAAUUCUGCCGUAUAUCUC,0.02
2,UAACAGACGGCCACAGCUGAAGCGUUCACGUCGCAGCCCGUGUCAGAUUCUGGUGAGCCUGCGGAUUCUGCUGUAUAUCUC,0.06
3,UAACAGAGGGCCACAGCAGAAGCGUUCACGUCGCAGCCCCUGUUAGAUUCUGGUGAAUCUGCGAAUUCUGCUGCAUAUCUC,0.29
4,UAACAGAGGGCCACAGCAGAAGCGUUCACGUCGCAGCCCCUGUCAGAUUCUGGUGAAUCUGCGGAUUCUGCUGUACAUCUC,0.19
5,UAACAGAGGGCCACAGCAGAAGCGUUCUCGUCGCAGCCCCUGUCGGAUUCUGGUGGAUCUGCGAAUUCUGCUGUAUAUCUC,0.06
6,UAACAGAGGGCCACAGCAGAAGCGUUCACGUCGCAGCCCAUGUCAGAUUCCGGUGAAUCAGCGAAUCCUGCUGUAAAUCCC,0.04
7,UAACAGAGGGCCACAGCAGAAGUGUUCACGUCGCAGCCCCAGUCAGAUUCUGGUGAAUCUGCGAAUUCUGCUGUCUAUCUC,0.17
8,UAACAGAGGGCGACAGCAGAAGCGUUCACGUCGCAGCCCCUGUCAGACUCUGGUGAAUUUGCGAAUUCCGCUGUAUAUCUC,0.04
9,UAACAGAGGGCUACAGCAGAAGCGUUAACGUCGCAGCCCCUGUCAGAUUCUGGUGAGUCUGCGAAUUCUGCUGUAUAUCUC,0.05
10,UAACAGAGGGCCACAGCAGAAGCGUUAACGCCGCAGCACCUGUCAGAUUCUGGUGAAUCUGCGAAUUCUGCUGUAUAUCCC,0.05
11,UAACAGAGGGCCACAGCAGAAGCGUUCACGUCGCAGCCCCUGUCAGAUUCUGGUGAGUCUGCGAAUUCUGCUGUAUACCCC,0.13
12,UAACAGAGGACCUCAGCAGAAGCGUUCACGUCGCAGCCCCUGUCAGAUUCUGGUGUAUCUGCGAAUUCUGCUGUAUAUCCC,0.08
13,UAACAGAGGGCCACAGCAGAAGCGUUCACGUCGCAGCCCCUGUCGGAUUCUGGAGAAUCAGCGAAUUCUGCUGUAUACCCC,0.04
14,UAACAGAGGGCAACAGCAGAAGCGUCCACGUCGCAGCCUCUGUCAGAUUCUGGUGAAUCUGCGAAUUCUGCUGUGUAUCUC,0.04
15,UAACAGAGGGCCACAGCAGAAGUGUCCACGUCGCAGCCCCUGUCAGAUUCUGGUGAAUCUGCGAAUUCUGCUGUAUAUCUC,0.05
16,UAACAGACGGCCGCAGCAGAAGCGUUCACGUCGCAGCCCCUGUCAGAUUCUGGUGAAUCUGCGAACUCAGCUGUAUAUCUC,0.08
17,UAACAGAGGACCACAGCAGAAGCGCCCACGCCGCAGCCCCUGUCAGAUUCUGGUGAGUCUGCGAAUUCUGCUGUAUAUCUC,0.05
18,UAACAGAGGGCCACAGCAGAAGCGUUCACGUCGCUGCCCAUGUCGGAUUCUGGUGGAUCUGCUAAUUCUGCUGUAUAUCUC,0.04
19,UAACAGAGGGCCACAGCAGAAGCGUUCACGUCGCAGCCCCUGUCUGAUUGUGGUGAGUCUGCGAAUUCUGCUGUAUAUCUC,0.07
20,UAACAGAGGGCCACAGCAGAAGCGUUCUCGUCGCGGCCCCUGUCAGAUUCUGGUGAAUCUGUGAAUUCUGCUGAAUAUCUC,0.05
21,UAACAGAGGGCCACAGCAGAAGCGUUCACGUCGCUGCCCCAGUCAGAUUCUGGUGAAUCUGCGAGUUCUGCUGUAUAUCUC,0.08
22,UAACAGAGGGCUACAGCAGAAGCGCUCACGUCGCUGCCCCUGUCAGAUUCUGGUGAAUCUGCGAAUUCUGCUGUAUACCUC,0.05
